According to a collection of fitness landscapes (doi:10.1126/science.1257360):
The list shows a part of the results.

B1: PhoQ; a variant is named by its letters at X, in order, P23837 (parent)
chain: MKKLLRLFFPLSLRVRFLLATAAVVLVLSLAYGMVALIGYSVSFDKTTFRLLRGESNLFYTLAKWENNKLHVELPENIDKQSPTMTLIYDENGQLLWAQRDVPWLMKMIQPDWLKSNGFHEIEADVNDTSLLLSGDHSIQQQLQEVREDDDDAEMTHSVAVNVYPATSRMPKLTIVVVDTIPVELKSSYMVWSWFIYVLSANLLLVIPLLWVAAWWSLRPIEALAKEVRELEEHNRELLNPATTRELTSLVRNLNRLLKSERERYDKYRTTLTDLTHSLKTPLXXLQXXLRSLRSEKMSVSDAEPVMLEQISRISQQIGYYLHRASMRGGTLLSRELHPVAPLLDNLTSALNKVYQRKGVNISLDISPEISFVGEQNDFVEVMGNVLDNACKYCLEFVEISARQTDEHLYIVVEDDGPGIPLSKREVIFDRGQRVDTLRPGQGVGLAVAREITEQYEGKIVAGESMLGGARMEVIFGRQHSAPKDE

Variants of: B1
Test: enrichment ratio after two sorts for PhoP signalling (ratio (wild type AVST 3.29)); higher = more functional
Conditions: with PhoP (E. coli)
For YKPL, the enrichment ratio was ≤ 0.25.
For IKVW, the enrichment ratio was ≤ 0.25.
In the case of EDIL, the enrichment ratio is reported as ≤ 0.25.
ICCG was tested, and the enrichment ratio was ≤ 0.25.
In the case of QYYP, the enrichment ratio is reported as ≤ 0.25.
With VRIT the enrichment ratio was ≤ 0.25.
With GVMH the enrichment ratio was 6.59.
GFCI was tested, and the enrichment ratio was ≤ 0.25.
MVDF was tested, and the enrichment ratio was ≤ 0.25.
IWFR was tested, and the enrichment ratio was ≤ 0.25.
For NQAY, the enrichment ratio was ≤ 0.25.
In the case of SPPG, the enrichment ratio is reported as ≤ 0.25.
MHKR was tested, and the enrichment ratio was ≤ 0.25.
In the case of YTHL, the enrichment ratio is reported as ≤ 0.25.
In the case of WLGH, the enrichment ratio is reported as ≤ 0.25.
RKRD was tested, and the enrichment ratio was ≤ 0.25.
PIVM was tested, and the enrichment ratio was ≤ 0.25.
In the case of TTAE, the enrichment ratio is reported as 0.862.
KLND was tested, and the enrichment ratio was ≤ 0.25.
With WFYH the enrichment ratio was ≤ 0.25.
GSGV was tested, and the enrichment ratio was 1.31.
HSPN was tested, and the enrichment ratio was ≤ 0.25.
INKL gave an enrichment ratio of 0.269.
For MLAN, the enrichment ratio was ≤ 0.25.
In the case of PASF, the enrichment ratio is reported as ≤ 0.25.
With VNEW the enrichment ratio was ≤ 0.25.
With HCKS the enrichment ratio was ≤ 0.25.
For LDVN, the enrichment ratio was ≤ 0.25.
For AHDA, the enrichment ratio was ≤ 0.25.
In the case of VFFF, the enrichment ratio is reported as ≤ 0.25.
For GEYK, the enrichment ratio was ≤ 0.25.
With PFAR the enrichment ratio was ≤ 0.25.
With NPAN the enrichment ratio was ≤ 0.25.
For WESH, the enrichment ratio was ≤ 0.25.
With RSCP the enrichment ratio was ≤ 0.25.
WDHV was tested, and the enrichment ratio was ≤ 0.25.
With LRCF the enrichment ratio was ≤ 0.25.
With GATP the enrichment ratio was ≤ 0.25.
In the case of TYHK, the enrichment ratio is reported as ≤ 0.25.
LCHQ was tested, and the enrichment ratio was ≤ 0.25.
PHVT was tested, and the enrichment ratio was ≤ 0.25.
For AWQL, the enrichment ratio was ≤ 0.25.
With FWIV the enrichment ratio was ≤ 0.25.
IFHI was tested, and the enrichment ratio was ≤ 0.25.
RNGR was tested, and the enrichment ratio was ≤ 0.25.
MQLK was tested, and the enrichment ratio was ≤ 0.25.
SNEH was tested, and the enrichment ratio was ≤ 0.25.
In the case of NSKA, the enrichment ratio is reported as ≤ 0.25.
For IWNS, the enrichment ratio was ≤ 0.25.
IRWD was tested, and the enrichment ratio was ≤ 0.25.
ETTV was tested, and the enrichment ratio was ≤ 0.25.
In the case of DVPM, the enrichment ratio is reported as ≤ 0.25.
For EFHN, the enrichment ratio was ≤ 0.25.
For TWKS, the enrichment ratio was ≤ 0.25.
With NCIT the enrichment ratio was ≤ 0.25.
With DFHL the enrichment ratio was ≤ 0.25.
For YVQS, the enrichment ratio was ≤ 0.25.
With VYST the enrichment ratio was ≤ 0.25.
YLWF was tested, and the enrichment ratio was ≤ 0.25.
For YPWF, the enrichment ratio was ≤ 0.25.
In the case of KLFV, the enrichment ratio is reported as ≤ 0.25.
In the case of RQWS, the enrichment ratio is reported as ≤ 0.25.
AMVK was tested, and the enrichment ratio was 3.1.
For KGQI, the enrichment ratio was ≤ 0.25.
In the case of FAIR, the enrichment ratio is reported as ≤ 0.25.
PFKD was tested, and the enrichment ratio was ≤ 0.25.
TLIT was tested, and the enrichment ratio was ≤ 0.25.
For LNNS, the enrichment ratio was ≤ 0.25.
For PMWP, the enrichment ratio was ≤ 0.25.
In the case of YPNM, the enrichment ratio is reported as ≤ 0.25.
With GDKR the enrichment ratio was ≤ 0.25.
In the case of VAIH, the enrichment ratio is reported as ≤ 0.25.
GTHM was tested, and the enrichment ratio was ≤ 0.25.
In the case of LTDE, the enrichment ratio is reported as ≤ 0.25.
With KTPQ the enrichment ratio was ≤ 0.25.
In the case of RFMV, the enrichment ratio is reported as ≤ 0.25.
In the case of HWWD, the enrichment ratio is reported as ≤ 0.25.
For TYFN, the enrichment ratio was ≤ 0.25.
For SLID, the enrichment ratio was ≤ 0.25.
For MCPL, the enrichment ratio was ≤ 0.25.
AQVM gave an enrichment ratio of 8.43.
For VENC, the enrichment ratio was ≤ 0.25.
NSGA was tested, and the enrichment ratio was ≤ 0.25.
In the case of IKHP, the enrichment ratio is reported as ≤ 0.25.
